This is one part of the list. Further columns of the screen follow, without active or inactive calls.
Tests used:
Assay in all cases: Primary Screen for Target Class Profiling of Small Molecule Inhibitors of Methyltransferases
[1] = target: Glycine N-methyltransferase (Homo sapiens) (UniProt Q14749); details: purified enzyme, MTase-Glo SAH luminescence; measured here: GNMT inhibition; at 40 µM; stronger effect = lower value
How it was run: (§1)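 Each enzyme was assayed with SAM and its substrate. SAH formation detected by MTase-Glo luminescence; single-point 40 uM screen[…].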

[2] = target: Guanidinoacetate N-methyltransferase (Homo sapiens) (UniProt Q14353); details: purified enzyme, MTase-Glo SAH luminescence; measured here: GAMT inhibition; at 40 µM; stronger effect = lower value
How it was run: as §1

[3] = target: Histamine N-methyltransferase (Homo sapiens) (UniProt P50135); details: purified enzyme, MTase-Glo SAH luminescence; measured here: HNMT inhibition; at 40 µM; stronger effect = lower value
How it was run: as §1

[4] = target: Nicotinamide N-methyltransferase (Homo sapiens) (UniProt P40261); details: purified enzyme, MTase-Glo SAH luminescence; measured here: NNMT inhibition; at 40 µM; stronger effect = lower value
How it was run: as §1

[5] = target: Phenylethanolamine N-methyltransferase (Homo sapiens) (UniProt P11086); details: purified enzyme, MTase-Glo SAH luminescence; measured here: PNMT inhibition; at 40 µM; stronger effect = lower value
How it was run: as §1
On the % scale 0 is the no-effect control and ±100 the full control effect.

| SMILES | activity change, negative = inhibition [1] [%] | activity change, negative = inhibition [2] [%] | activity change, negative = inhibition [3] [%] | activity change, negative = inhibition [4] [%] | activity change, negative = inhibition [5] [%] |
| --- | --- | --- | --- | --- | --- |
| CCc1cc2c(cc3n2CC(C)(C(=O)NC2CCC(C)CC2)N(c2cccc(Cl)c2C)C3=O)s1 (stereo not given) | 2.93 | 4.43 | -0.489 | 4.58 | -0.429 |
| O=C(NCC(F)F)C1CCCN1C(=O)c1cccc(-c2ccccn2)c1 (stereo not given) | -2.49 | -3.87 | -0.865 | -3.21 | 2.86 |
| C=CCOc1cccc(-c2nc(C(=O)NCc3cccc(F)c3)cs2)c1 | -2.67 | 0.907 | 0.968 | -3.05 | -2.46 |
| CCOc1ccc(NC(=O)c2cc3n(n2)CC(C)(C(=O)NC2CCCC2)N(CC)C3=O)cc1 (stereo not given) | 1.34 | 0.587 | -6.45 | 5.06 | 1.23 |
| Cc1nc2c3ccccc3n3c(CCCC(=O)NCCc4ccc(Cl)cc4)nnc3n2n1 | -12.2 | 3.37 | -0.071 | 7.49 | -4.62 |
| CCc1cn(C[C@H](NC(=O)COC)C(=O)O)c(=O)[nH]c1=O | -2.68 | -6.87 | -2.74 | -5.89 | -0.355 |
| C[C@@H]1C(=O)NC2=Nc3cccc(Cl)c3CN21 | 2.44 | 13.2 | 9.26 | -3.18 | -1.12 |
| COCc1c(Cl)ccc2c1CC[C@H]2c1ncc[nH]1 | -4.37 | -9.06 | -18.2 | -21 | -1.89 |
| CC1(C(=O)NC2CCCCC2)Cn2c(nc3ccccc32)C(=O)N1Cc1ccc(Cl)cc1 (stereo not given) | -3.52 | 0 | 6.19 | 1.24 | 0.356 |
| COc1ccc(NC(=O)CSc2nnc3[nH]c(=O)c(C)nn23)cc1OC | 9.06 | 0 | 7.61 | -0.583 | -20.2 |
| COc1ccccc1CNC(=O)C1(C)Cn2c(cc3ccccc32)C(=O)N1CCc1ccc(C)cc1 (stereo not given) | -2.94 | 3.65 | -0.286 | 3.66 | -2.34 |
| Cc1c(CN(C)C(=O)/C=C/c2cnc3c(c2)CCC(=O)N3)oc2ccccc12 | -2.34 | 1.07 | 12.2 | -18.4 | 3.6 |
| CC(C)c1ccc(-c2cc3n(n2)CC(C)(C(=O)NC2CCCCC2)N(C2CCCC2)C3=O)cc1 (stereo not given) | 3.25 | 0 | 7.15 | 7.62 | 2.69 |
| CCCN1C(=O)c2c(C(=O)Nc3cc(Cl)ccc3OC)ncn2CC1(C)C(=O)NC1CCCC1 (stereo not given) | -1.43 | 0.668 | 7.67 | 3.81 | 8.47 |
| c1ccc(CN2CCn3c4c(c5ccccc53)CCCC42)cc1 (stereo not given) | -5.5 | -1.09 | -9.67 | -7.81 | -12.8 |
| CCC(C)NC(=O)c1ccc2c(=O)n(C)c3nn(CC(=O)Nc4ccc(C)cc4C)c(=O)n3c2c1 (stereo not given) | 6.73 | 0 | 9.13 | 3.83 | 3.73 |
| COc1cccc(Cn2nc3n(CCC(C)C)c(=O)c4ccc(C(=O)NC5CCCCC5)cc4n3c2=O)c1 | 4.39 | 1.21 | 8.77 | -1.66 | 7.09 |
| Cc1ccc2c(C(=O)NCc3ccc(Cl)cc3)cnn2c1 | -9.76 | -4.71 | -3.28 | -8.13 | -6.58 |

— PubChem BioAssay AID1745853 (National Center for Advancing Translational Sciences (NCATS), 2022)
